This passage reports cell count results from the supplement of paper PMC4604168 (melanoma cell lines).

The list shows a part of the results. Single values are uncertain, as repeats are few or missing.
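Note: cells treated in 1,536-well plates, then fixed and DAPI-stained, with nuclei counted from automated high-throughput microscope images.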

This assay concerns A101D. Nature of the assay: cell count relative to DMSO control; melanoma cells; higher = more viable cells. As to conditions: library dose: standard library concentration; 72 h.
For the compound `NC1(c2ccc(-c3nc4ccn5c(=O)[nH]nc5c4cc3-c3ccccc3)cc2)CCC1` + O=C(Nc1ccccc1)c1cc([N+](=O)[O-])ccc1Cl [GW9662] (first compound 2 µM, partner dose 10 µM), the cell count amounted to 56.9%.
`C=C(c1ccc(C(=O)O)cc1)c1cc2c(cc1C)C(C)(C)CCC2(C)C` [Bexarotene] + O=C(CCCCCCC(=O)Nc1ccccc1)NO [vorinostat] (first compound 10 µM, partner dose 0.4 µM): the cell count was determined as 68%.
Next, `CCCS(=O)(=O)Nc1ccc(F)c(C(=O)c2c[nH]c3ncc(Cl)cc23)c1F` + O=C1NC(=O)/C(=C/c2ccc(-c3ccc(F)cc3O)o2)S1 [AS252424] (first compound 0.4 µM, partner dose 5 µM): 69.2%; `NC1(c2ccc(-c3nc4ccn5c(=O)[nH]nc5c4cc3-c3ccccc3)cc2)CCC1` + O=C(O)C(=O)Nc1sc2c(c1C(=O)O)CCNC2 [TCS401] (first compound 2 µM, partner dose 8.33333 µM): 89.3%.
Take `CN(c1ncccc1CNc1nc(Nc2ccc3c(c2)CC(=O)N3)ncc1C(F)(F)F)S(C)(=O)=O` + CC(=O)c1c(C)c2cnc(Nc3ccc(N4CCNCC4)cn3)nc2n(C2CCCC2)c1=O [palbociclib] (first compound 0.4 µM, partner dose 0.2 µM): the cell count came to 63.5%.
The compound `C=C(c1ccc(C(=O)O)cc1)c1cc2c(cc1C)C(C)(C)CCC2(C)C` [Bexarotene] + CCCCCCCCCCCC1=C(O)C(=O)C=C(O)C1=O [Embelin] (first compound 10 µM, partner dose 6 µM) displayed a cell count of 94.7%.
In turn, `CN(c1ncccc1CNc1nc(Nc2ccc3c(c2)CC(=O)N3)ncc1C(F)(F)F)S(C)(=O)=O` + COc1ccc(-c2ccc3c(N4CCOCC4)nc(N4C[C@@H](C)O[C@@H](C)C4)nc3n2)cc1CO [KU0063794] (first compound 0.4 µM, partner dose 0.1 µM) displayed a cell count of 76.9%.
Compound `CN(c1ncccc1CNc1nc(Nc2ccc3c(c2)CC(=O)N3)ncc1C(F)(F)F)S(C)(=O)=O` + COC(=O)c1sccc1S(=O)(=O)Nc1ccc(Nc2ccccc2)cc1OC [GSK0660] (first compound 0.4 µM, partner dose 5 µM) displayed a cell count of 75.6%.
As for `NC1(c2ccc(-c3nc4ccn5c(=O)[nH]nc5c4cc3-c3ccccc3)cc2)CCC1` + O=c1cc(-c2cccc3c2Sc2ccccc2S3)oc(N2CCOCC2)c1 [KU55933] (first compound 2 µM, partner dose 5 µM), the figure is 74.3%.
On to `CN(c1ncccc1CNc1nc(Nc2ccc3c(c2)CC(=O)N3)ncc1C(F)(F)F)S(C)(=O)=O` + CCCCCCCCCCCC1=C(O)C(=O)C=C(O)C1=O [Embelin] (first compound 0.4 µM, partner dose 6 µM), for which the cell count was found to be 69.9%.
On to `CN(c1ncccc1CNc1nc(Nc2ccc3c(c2)CC(=O)N3)ncc1C(F)(F)F)S(C)(=O)=O` + COc1cc2ncnc(Nc3ccc(Oc4ccccc4)cc3)c2cc1OC [SrcI1] (first compound 0.4 µM, partner dose 10 µM), for which the cell count was 68.3%.
In turn, `CS(=O)(=O)c1ccc(C(=O)Nc2ccc(Cl)c(-c3ccccn3)c2)c(Cl)c1` [vismodegib] + CCN(CC)CCCCNc1ncc2cc(-c3cc(OC)cc(OC)c3)c(NC(=O)NC(C)(C)C)nc2n1 [PD173074] (first compound 5 µM, partner dose 0.5 µM) registered a cell count of 109%.
`C=C(c1ccc(C(=O)O)cc1)c1cc2c(cc1C)C(C)(C)CCC2(C)C` [Bexarotene] + Cn1nnc2c(C(N)=O)ncn2c1=O [temozolomide] (first compound 10 µM, partner dose 10 µM) registered a cell count of 77.4%.
As for `NC1(c2ccc(-c3nc4ccn5c(=O)[nH]nc5c4cc3-c3ccccc3)cc2)CCC1` + CCN(CC)CCCCNc1ncc2cc(-c3cc(OC)cc(OC)c3)c(NC(=O)NC(C)(C)C)nc2n1 [PD173074] (first compound 2 µM, partner dose 0.5 µM), the cell count was determined as 94.3%.
Turning to `CN(c1ncccc1CNc1nc(Nc2ccc3c(c2)CC(=O)N3)ncc1C(F)(F)F)S(C)(=O)=O` + O=C(O)C(=O)Nc1sc2c(c1C(=O)O)CCNC2 [TCS401] (first compound 0.4 µM, partner dose 8.33333 µM), the cell count was found to be 91.3%.
On to `CN(c1ncccc1CNc1nc(Nc2ccc3c(c2)CC(=O)N3)ncc1C(F)(F)F)S(C)(=O)=O` + COc1ccc(COc2ccc(Cc3cnc(N)nc3N)cc2OC)cc1 [GW2580] (first compound 0.4 µM, partner dose 5 µM), for which the cell count was determined as 82.4%.
As for `CN(c1ncccc1CNc1nc(Nc2ccc3c(c2)CC(=O)N3)ncc1C(F)(F)F)S(C)(=O)=O` + CCN(CC)CCCCNc1ncc2cc(-c3cc(OC)cc(OC)c3)c(NC(=O)NC(C)(C)C)nc2n1 [PD173074] (first compound 0.4 µM, partner dose 0.5 µM), the figure is 81.9%; as for `NC1(c2ccc(-c3nc4ccn5c(=O)[nH]nc5c4cc3-c3ccccc3)cc2)CCC1` + c1cc(-c2cnn3cc(-c4ccc(OCCN5CCCCC5)cc4)cnc23)ccn1 [Dorsomorphin] (first compound 2 µM, partner dose 2 µM), 73.4%.
Consider `C=C(c1ccc(C(=O)O)cc1)c1cc2c(cc1C)C(C)(C)CCC2(C)C` [Bexarotene] + c1cc(-c2cnn3cc(-c4ccc(OCCN5CCCCC5)cc4)cnc23)ccn1 [Dorsomorphin] (first compound 10 µM, partner dose 2 µM), for which the cell count is 78.2%.
In the case of `CS(=O)(=O)c1ccc(C(=O)Nc2ccc(Cl)c(-c3ccccn3)c2)c(Cl)c1` [vismodegib] + O=C(O)C(=O)Nc1sc2c(c1C(=O)O)CCNC2 [TCS401] (first compound 5 µM, partner dose 8.33333 µM), the cell count came to 105%.
For `CN(c1ncccc1CNc1nc(Nc2ccc3c(c2)CC(=O)N3)ncc1C(F)(F)F)S(C)(=O)=O` + N#Cc1c(O)c2c(-c3ccc(-c4ccccc4O)cc3)csc2[nH]c1=O [A769662] (first compound 0.4 µM, partner dose 10 µM), the cell count came to 103%.
As for `CN(c1ncccc1CNc1nc(Nc2ccc3c(c2)CC(=O)N3)ncc1C(F)(F)F)S(C)(=O)=O` + O=S(=O)(c1ccccc1)N(CC(F)(F)F)c1ccc(C(O)(C(F)(F)F)C(F)(F)F)cc1 [T0901317] (first compound 0.4 µM, partner dose 7 µM), the figure is 80%; as for `C=C(c1ccc(C(=O)O)cc1)c1cc2c(cc1C)C(C)(C)CCC2(C)C` [Bexarotene] + COc1ccc(COc2ccc(Cc3cnc(N)nc3N)cc2OC)cc1 [GW2580] (first compound 10 µM, partner dose 5 µM), 107%; as for `NC1(c2ccc(-c3nc4ccn5c(=O)[nH]nc5c4cc3-c3ccccc3)cc2)CCC1` + O=C(O)c1ccc(-c2c[nH]c3ncc(-c4ccccc4)cc23)cc1C1CCCC1 [GSK650394] (first compound 2 µM, partner dose 0.8 µM), 91.3%.
On to `CCCS(=O)(=O)Nc1ccc(F)c(C(=O)c2c[nH]c3ncc(Cl)cc23)c1F` + Cc1nc(Nc2ncc(C(=O)Nc3c(C)cccc3Cl)s2)cc(N2CCN(CCO)CC2)n1 [dasatanib] (first compound 0.4 µM, partner dose 0.02 µM), for which the cell count is 71.2%.
